Test results published in paper PMC4336329 (PLoS ONE, 2015).
In all, about 310,000 compounds went through this assay and about 14,000 (4.5%) showed an effect of 50% or more. The effect is printed as a negative number. The list shows a part of the results.

target: human ether-à-go-go-related gene (hERG) potassium channel (human, UniProt Q12809); test: primary screen, population patch clamp on CHO cells stably expressing hERG
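Also: peak tail current of the secondary pulse compared with the same well before compound.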

human ether-à-go-go-related gene (hERG) potassium channel, sequence (Q12809 whole entry, looked up): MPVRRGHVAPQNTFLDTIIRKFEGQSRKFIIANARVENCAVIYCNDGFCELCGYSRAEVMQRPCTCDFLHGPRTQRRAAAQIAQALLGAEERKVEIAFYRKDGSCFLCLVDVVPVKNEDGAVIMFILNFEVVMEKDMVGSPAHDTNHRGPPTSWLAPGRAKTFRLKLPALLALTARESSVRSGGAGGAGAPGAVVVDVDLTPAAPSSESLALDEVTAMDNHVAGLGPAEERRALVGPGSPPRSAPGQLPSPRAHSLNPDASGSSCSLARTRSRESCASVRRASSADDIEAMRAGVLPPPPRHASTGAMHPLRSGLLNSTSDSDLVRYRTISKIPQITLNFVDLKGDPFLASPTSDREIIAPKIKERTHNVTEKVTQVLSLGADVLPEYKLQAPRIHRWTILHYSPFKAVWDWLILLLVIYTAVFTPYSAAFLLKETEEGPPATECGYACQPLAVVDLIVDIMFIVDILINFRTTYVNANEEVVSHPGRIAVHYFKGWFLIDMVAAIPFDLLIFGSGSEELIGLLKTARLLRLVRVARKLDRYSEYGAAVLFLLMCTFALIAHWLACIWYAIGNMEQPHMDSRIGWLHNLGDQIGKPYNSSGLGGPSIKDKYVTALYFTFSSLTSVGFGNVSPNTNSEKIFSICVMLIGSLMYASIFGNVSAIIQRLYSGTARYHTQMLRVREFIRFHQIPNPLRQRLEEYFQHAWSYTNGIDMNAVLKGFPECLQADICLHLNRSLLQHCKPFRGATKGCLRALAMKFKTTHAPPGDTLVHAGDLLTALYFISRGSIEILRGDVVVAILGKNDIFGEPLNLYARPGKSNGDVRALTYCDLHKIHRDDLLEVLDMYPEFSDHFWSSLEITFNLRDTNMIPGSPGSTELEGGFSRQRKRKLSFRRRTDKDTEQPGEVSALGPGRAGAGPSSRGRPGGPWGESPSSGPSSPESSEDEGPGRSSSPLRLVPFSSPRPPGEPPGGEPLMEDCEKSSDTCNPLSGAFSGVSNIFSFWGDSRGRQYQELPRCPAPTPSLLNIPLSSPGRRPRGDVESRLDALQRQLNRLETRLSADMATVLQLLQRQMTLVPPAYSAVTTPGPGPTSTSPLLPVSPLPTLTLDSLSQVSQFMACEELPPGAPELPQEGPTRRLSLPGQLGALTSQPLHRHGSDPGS

SMILES	hERG current change (%, negative = inhibition) at 10uM [%]
Clc1ccc(CCNc2ncnc3nc[nH]c23)cc1	0.634
CC(C)(C)NC(=O)CSc1nc(-c2ccccc2)cc(=O)[nH]1	23
COCCn1c(=O)[nH]c2cc(C(=O)NCc3ccccc3)ccc2c1=O	6.78
Cc1cc(-c2ccc(S(=O)(=O)N3CCCCC3)s2)on1	12.5
NC(=O)c1cccn1-c1ncc(C(F)(F)F)cc1Cl	7.9
Cc1ccc(CNC(=O)COC(=O)Cc2ccc(-c3ccccc3)cc2)cc1	13.8
COc1ccc(Nc2nc(C)nc3c2oc2ccccc23)cc1	3.77
Cc1sc2nc(CSCC(=O)Nc3ccc(C(F)(F)F)cc3)[nH]c(=O)c2c1C	-21.1
O=C(CN(C(=O)c1csnn1)c1cccc(F)c1)NCc1ccc(F)cc1	-25.7
CCOC(=O)c1cc(C)n(Cc2ccc(OCC)c(OC)c2)c1C	-3.03
CCCCNC(=O)O[C@@H]1C[C@H]2CCC(=O)N3CC[C@@H](C1)[C@@H]23	3.18
COc1cccc(C(=O)NCc2ccco2)c1	17.3
COc1ccc(CCNC(=O)[C@H](C)N2C(=O)N3CCc4c([nH]c5ccccc45)[C@@]3(C)C2=O)cc1OC	-10.1
Nc1c2c(nc3c1CCCC3)CCCC2.O=C(O)c1cc[nH]c(=O)c1	-10.1
COC(=O)C1=C(C)NC(C)=C(C(=O)OC)C1c1cc2ccc(C)cc2[nH]c1=O	9.13
CCOC(=O)c1cc2sc(C)cc2n1CC(=O)N(CC)CC	-2.35
O=C(/C=C/c1ccccc1Cl)Nc1cccnc1	5.98
Cc1occc1C(=O)NCc1ccco1	31
COc1ccc2oc(=O)c(-c3nnc(N)s3)cc2c1	18.5
O=C(COC(=O)Cc1ccccc1F)Nc1cccc(S(=O)(=O)NC2=NCCCCC2)c1	-13.1
Cc1ccn2c(/C=N/OCc3cccc(F)c3)c(-c3ccc(Cl)cc3)nc2c1	-10.1
CCN(CC)CCNC(=O)C1CCC(=O)N(c2ccc(OC)cc2)C1c1ccc(F)cc1 (stereo not drawn)	-5.79
CCOC(=O)c1c(/N=C/N(C)C)sc(/C=N/Nc2ccccc2)c1-c1ccccc1Cl	22.5
CCC(C)Sc1ccc([C@@H]2[C@@H]3C(=O)N(C)C(=O)[C@@H]3[C@]3(C(=O)OC)CCCCN23)cc1OC.O=C(O)C(F)(F)F (stereo partly drawn)	-22
